Source: PMC4336329 (PLoS ONE, 2015)
About 2,200 (0.71%) of roughly 310,000 compounds showed an effect of 50% or more. The effect is printed as a negative number. The list shows a part of the results.

Molecular target: human ether-à-go-go-related gene (hERG) potassium channel (human, UniProt Q12809)
Assay: primary screen, population patch clamp on CHO cells stably expressing hERG

human ether-à-go-go-related gene (hERG) potassium channel, sequence (Q12809 whole entry, looked up): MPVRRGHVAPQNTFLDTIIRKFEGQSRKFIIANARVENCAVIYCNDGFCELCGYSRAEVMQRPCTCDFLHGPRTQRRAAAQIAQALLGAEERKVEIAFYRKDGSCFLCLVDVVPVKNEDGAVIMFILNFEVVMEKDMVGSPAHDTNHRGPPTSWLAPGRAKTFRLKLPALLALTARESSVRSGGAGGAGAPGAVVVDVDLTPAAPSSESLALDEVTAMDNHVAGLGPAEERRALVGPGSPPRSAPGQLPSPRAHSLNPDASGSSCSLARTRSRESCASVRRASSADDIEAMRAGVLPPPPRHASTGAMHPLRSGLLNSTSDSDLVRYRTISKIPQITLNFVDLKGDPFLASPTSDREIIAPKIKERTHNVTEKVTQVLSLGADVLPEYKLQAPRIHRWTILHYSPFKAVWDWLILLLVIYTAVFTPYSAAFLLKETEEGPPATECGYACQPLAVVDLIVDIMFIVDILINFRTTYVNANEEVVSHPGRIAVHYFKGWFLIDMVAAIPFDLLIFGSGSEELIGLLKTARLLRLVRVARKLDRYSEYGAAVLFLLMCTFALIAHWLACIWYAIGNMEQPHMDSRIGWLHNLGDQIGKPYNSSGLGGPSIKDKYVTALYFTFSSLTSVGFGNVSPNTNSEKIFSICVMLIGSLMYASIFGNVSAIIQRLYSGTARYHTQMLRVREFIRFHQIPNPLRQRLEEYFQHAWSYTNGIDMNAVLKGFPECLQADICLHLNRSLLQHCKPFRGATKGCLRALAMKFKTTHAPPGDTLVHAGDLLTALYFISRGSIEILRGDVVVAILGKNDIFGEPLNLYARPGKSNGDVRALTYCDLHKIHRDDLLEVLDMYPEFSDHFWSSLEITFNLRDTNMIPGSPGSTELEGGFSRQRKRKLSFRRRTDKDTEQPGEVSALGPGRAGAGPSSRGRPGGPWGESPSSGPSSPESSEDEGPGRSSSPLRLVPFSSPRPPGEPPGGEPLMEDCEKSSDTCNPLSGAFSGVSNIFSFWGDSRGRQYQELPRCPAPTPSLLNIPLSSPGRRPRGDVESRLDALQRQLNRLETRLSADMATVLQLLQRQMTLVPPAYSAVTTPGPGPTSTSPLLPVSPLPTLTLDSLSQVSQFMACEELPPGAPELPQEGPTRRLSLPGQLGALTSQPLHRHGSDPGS

| SMILES | hERG current change (%, negative = inhibition) at 1uM |
| --- | --- |
| CC(C)C(c1nnnn1CCc1ccccc1)N1CCSCC1 (stereo not drawn) | 13.3% |
| CCOc1cc(C)c(S(=O)(=O)Nc2ccc(Cl)cn2)cc1C | 14.1% |
| CCc1ccc(NS(=O)(=O)c2ccc3oc(=O)ccc3c2)cc1 | 6.73% |
| Cc1cc2cc(CN(Cc3ccco3)C(=O)NCc3ccccc3)c(=O)[nH]c2cc1C | 1.62% |
| CCCCn1c(=O)[nH]c(=O)c2c1nc(-c1ccccc1OC(F)F)n2C | 10% |
| CCn1c2ccccc2c2cc(CNCc3ccc(OC)cc3OC)ccc21.O=C(O)C(=O)O | -47.5% |
| CC(=O)Nc1sc(C)c(C)c1C(=O)OC1CCOC1=O (stereo not drawn) | 2.28% |
| CC(C)(C)n1cnc2cc(NCc3cccs3)ccc21 | -0.668% |
| Cc1cccc(NC(=O)NNC(=O)CCc2ccccc2)c1 | 13.7% |
| O=C(O)C(=O)O.c1ccc(-c2cc(N3CCOCC3)nc3ccccc23)cc1 | -9.13% |
| C=CCNC(=S)/N=c1/ccccn1CCC | 16.4% |
| Cc1nc(SCC(=O)Nc2ccc3c(c2)OCCO3)c2oc3ccccc3c2n1 | 4.15% |
| COc1ccccc1C(c1nnnn1CCc1ccccc1)N1CCCCCC1 (stereo not drawn) | -1% |
| COc1ccc(/C(O)=C/c2nc3ccc(C(=O)NCCc4cccc(C)c4)cc3[nH]c2=O)cc1OC | 10.4% |
| COC(=O)c1ccc2c(c1)NC(=O)C(N(CC(C)C)CC(C)C)S2 (stereo not drawn) | 11.2% |
| COc1ccc(CCn2c(=N)c(C(=O)NCC3CCCO3)cc3c(=O)n4ccccc4nc32)cc1OC (stereo not drawn) | -79.9% |
| Oc1ccc(-c2cccc(-c3ccc(O)cc3)n2)cc1 | 10.6% |
| O=c1cnnc(N/N=C/c2ccc3c(c2)OCO3)[nH]1 | 11.6% |
| CCOc1cc(N2CCOCC2)c(OCC)cc1NC(=O)CSc1ncn[nH]1 | 9.98% |

| SMILES | hERG current change (%, negative = inhibition) at 1uM |
| --- | --- |
| Cc1cc(N2CCN(C)CC2)ccc1NC(=O)c1cccc(S(=O)(=O)N2CCc3ccccc3C2)c1 | 13.3% |
| COc1cc2c(cc1OC)C(C)N(C(=O)C1COc3ccccc3O1)CC2 (stereo not drawn) | -5.23% |
| COc1ccccc1OC(=O)CN1C(=O)c2ccccc2C1=O | -0.292% |
| CCC(C)[C@H](NC(=O)N1CCC(C)CC1)C(=O)O (stereo partly drawn) | -1.19% |
| O=C(COc1ccc(Cl)c(Cl)c1)NC1CCS(=O)(=O)C1 (stereo not drawn) | 13.9% |
| O=S(=O)(c1ccccc1)c1cnc2ccccc2c1 | 13.2% |
| O=C(N/N=C/c1ccc(O)cc1)NC12CC3CC(CC(C3)C1)C2 | -10.3% |
| O=C1NC2c3ccccc3C(=O)N2c2c1cnn2-c1ccccc1 (stereo not drawn) | 0.288% |
| O=C(CCN1C(=O)/C(=C\c2cccs2)SC1=S)Nc1ccccn1 | 10.2% |
| O=c1c2ccccc2nc2c3ccccc3ncn12 | 16% |
| CC(C)CC(=O)Nc1ccc(S(=O)(=O)N2CCCC2)cc1 | 19.4% |
| COC(=O)C1C2C=CC3(CN(C(C)c4ccc(OC)cc4)C(=O)C13)O2 (stereo not drawn) | 13.1% |
| CCc1ccc(NC(=O)CCn2c(=O)c3cccn3c3ccccc32)cc1 | 5.43% |
| COc1ccccc1CN1CC(C(=O)NCC2CCCO2)CC1=O (stereo not drawn) | 12.4% |
| Cc1ccc(C(O)P(=O)(OCc2ccccc2)c2ccc(N(C)C)cc2)cc1 (stereo not drawn) | 11.9% |
| COC(=O)C1(C)NC(c2ccco2)C2C(=O)N(c3ccc(F)cc3)C(=O)C21 (stereo not drawn) | 9.56% |
| COc1ccc(N=C(C)c2c(O)[nH]c(=O)[nH]c2=O)cc1 | 13.9% |
| O=C(CCl)Nc1cccc(S(=O)(=O)NC2=NCCC2)c1 | 12.1% |
| Oc1ccc2ccccc2c1CN1CCOCC1 | 10.3% |

| SMILES | hERG current change (%, negative = inhibition) at 1uM |
| --- | --- |
| O=C(NCc1ccc(F)cc1Cl)C1CC(=O)N(C2CCCCCCC2)C1 (stereo not drawn) | 13.7% |
| C(=N\N=C\c1cccs1)/c1cccs1 | 9.5% |
| CN(CCOC(=O)CN1C(=O)c2ccccc2C1=O)C1=NS(=O)(=O)c2ccccc21 | 8.18% |
| CCOc1ccc(CN(C)C(=O)CN2C(=O)NC3(CCCc4ccccc43)C2=O)cc1 (stereo not drawn) | 9.67% |
| CN(CC(=O)Nc1ccc(Cl)c(Cl)c1)C1CCCCC1.O=C(O)C(=O)O | 13% |
| CN(C(=O)c1cn2ccccc2n1)c1c(N)n(Cc2ccccc2)c(=O)[nH]c1=O | 16.2% |
| Cc1ccc2cc(CCNS(=O)(=O)c3ccc(F)cc3)c(=O)[nH]c2c1 | 1.31% |
| CC(=O)Nc1ccc(NC(=O)c2cc(=O)c3cc(C)c(C)cc3o2)cc1 | 6.98% |
| COc1cccc(-c2cc(C(=O)N3CCOCC3)no2)c1 | 15.7% |
| COc1ccc(CNc2nc(NCc3ccc(OC)cc3)n(C(=O)c3ccncc3)n2)cc1 | 21.3% |
| O=C(CN1C(=O)NC2(CCCC2)C1=O)Nc1cc(S(=O)(=O)N2CCOCC2)ccc1OCC(F)(F)F | 13% |
| CC(NC(=O)c1ccccc1)c1nnc(SCC(=O)NC2CCCC2)n1C (stereo not drawn) | 13.9% |
| Cc1ccc(NC(=O)CNc2cccc(S(=O)(=O)N3CCCCC3)c2)cc1F | 11.9% |
| CC(CC(=O)N1CCN(c2ccccc2)CC1)c1ccccc1 (stereo not drawn) | 14% |
| Cc1ccc(OCCN2CCN(C(=O)CCC(=O)Nc3nnc(C)s3)CC2)cc1 | 3.99% |
| CSc1cccc(NC(=O)C2CCCN(c3ncnc4c3nc3n4CCCCC3)C2)c1 (stereo not drawn) | 4.71% |
| CCCS(=O)(=O)c1nc(S(=O)(=O)c2ccc(C)cc2)c(NCc2ccco2)s1 | 6.82% |
| Cc1ccc(-c2nc(CS(=O)(=O)CC(=O)N3CCN(C)CC3)c(C)o2)cc1 | 10.3% |
| C[C@H]1[C@H](NC(=O)C(=NOC(C)(C)C(=O)O)c2csc(N)n2)C(=O)N1S(=O)(=O)O | 11.5% |
